Where a name gives a salt, the structure may show the parent alone. Whole data set: some 2,000 compounds, median “fractional viability relative to vehicle” near 0.91, cut for the lowest 2% near 0.045. The list shows a part of the results.
System: TYKNU
Experiment: fractional viability relative to vehicle; TYKNU is a high-grade serous ovarian cancer line; higher = less growth inhibition
Settings: 72 h
Procedure, shortened: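 Drug treatment lasted 72 h, with cells grown at 37 °C in 5% CO2 in RPMI 1640 supplemented with 10% FBS. Beforehand, TYKNU control cells or their lentiCRISPRv2 knockout derivatives had been seeded at 500 cells per well into drug-stamped 384-well plates carrying a ~2100-compound library at 2 or 10 μM, in duplicate. Viability came from Cell Titer Glo luminescence, with averaged duplicate treatment wells normalised to duplicate control wells in the same plate position.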

[1] = 2uM, genotype: DNM1L knockout (sgDNM1L #1)
[2] = 2uM, genotype: sgCTRLA1 (non-targeting control)
[3] = 10uM, genotype: DNM1L knockout (sgDNM1L #1)
[4] = 10uM, genotype: sgCTRLA1 (non-targeting control)

| Structure (SMILES) | fractional viability [1] | fractional viability [2] | fractional viability [3] | fractional viability [4] |
| --- | --- | --- | --- | --- |
| Cc1cccc(-c2[nH]c(CNc3ccccc3F)nc2-c2ccc3ncnn3c2)n1 | 0.988 | 1.03 | 1.1 | 0.875 |
| O=C(Nc1c(Cl)cncc1Cl)c1ccc(OC(F)F)c(OCC2CC2)c1 [Roflumilast] | 0.966 | 0.959 | 0.921 | 1 |
| CCOC(=O)OC(C)OC1=C(C(=O)Nc2ccccn2)N(C)S(=O)(=O)c2ccccc21 (configuration not stated) [Ampiroxicam] | 1.16 | 1.04 | 0.851 | 1.05 |
| O=S(=O)(O)CCS [Mesna] | 1.01 | 1.15 | 0.785 | 1.34 |
| Cn1nccc1Nc1nccc(-c2ccn([C@H](CO)c3ccc(Cl)c(F)c3)c(=O)c2)n1 | 0.526 | 0.689 | 0.217 | 0.214 |
| CC(=O)OCC(=O)[C@@]12N=C(C)O[C@@H]1C[C@H]1[C@@H]3CCC4=CC(=O)C=C[C@]4(C)[C@H]3[C@@H](O)C[C@@]12C [Deflazacort] | 1.21 | 1.17 | 0.958 | 1.04 |
| OCc1cc(C(O)CNCCCCCCOCCCCc2ccccc2)ccc1O (configuration not stated) [Salmeterol Xinafoate] | 0.547 | 0.817 | 0.515 | 0.583 |
| C[C@@H](CN1CC(=O)NC(=O)C1)N1CC(=O)NC(=O)C1 [Dexrazoxane HCl (ICRF-187, ADR-529)] | 1.04 | 1 | 0.886 | 1.09 |
| CNCCC(Oc1ccc(C(F)(F)F)cc1)c1ccccc1 (configuration not stated) [Fluoxetine HCl] | 1.17 | 1.07 | 0.927 | 0.834 |
| Cc1nc2n(c(=O)c1CCN1CCC(c3noc4cc(F)ccc34)CC1)CCCC2 [Risperidone] | 0.833 | 0.99 | 0.943 | 0.98 |
| CCC(=O)O[C@]1(C(=O)CCl)[C@@H](C)C[C@H]2[C@@H]3C[C@H](F)C4=CC(=O)C=C[C@]4(C)[C@@]3(F)[C@@H](O)C[C@@]21C [Halobetasol Propionate] | 1.12 | 1.08 | 0.548 | 0.975 |
| CN(C)Cc1cccc(N/C(=C2\C(=O)Nc3cc(C(N)=O)ccc32)c2ccccc2)c1 | 1.01 | 0.992 | 1.05 | 0.912 |
| CCN1CC(CCN2CCOCC2)C(c2ccccc2)(c2ccccc2)C1=O (configuration not stated) [Doxapram HCl] | 1.03 | 1.11 | 0.786 | 1.02 |
| CCC(CC)CC1(C(=O)Nc2ccccc2SC(=O)C(C)C)CCCCC1 | 0.878 | 1.11 | 0.616 | 0.945 |
| c1ccc2[nH]c(-c3cscn3)nc2c1 [Thiabendazole] | 0.943 | 0.979 | 0.907 | 0.866 |
| Cn1cc(-c2ccc3nnc(C(F)(F)c4ccc5ncccc5c4)n3n2)cn1 | 1.13 | 0.994 | 1.03 | 0.954 |
| CNC(=O)Nc1ccc(-c2nc(N3CC4CCC(C3)O4)c3cnn(C4CCC5(CC4)OCCO5)c3n2)cc1 | 0.199 | 0.212 | 0.188 | 0.166 |
| CN1CC2c3ccccc3Oc3ccc(Cl)cc3C2C1 (configuration not stated) [Asenapine] | 1 | 1.16 | 0.833 | 1.01 |
| CCCCNc1ncc2c(-c3ccc(CN4CCN(C)CC4)cc3)cn([C@H]3CC[C@H](O)CC3)c2n1 | 0.322 | 0.41 | 0.0773 | 0.0599 |
| COC1=C2C[C@@H](C)C[C@H](OC)[C@H](O)[C@@H](C)/C=C(\C)[C@H](OC(N)=O)[C@@H](OC)/C=C\C=C(/C)C(=O)NC(=CC1=O)C2=O [Geldanamycin] | 0.295 | 0.17 | 0.0611 | 0.0545 |

| Structure (SMILES) | fractional viability [1] | fractional viability [2] | fractional viability [3] | fractional viability [4] |
| --- | --- | --- | --- | --- |
| COc1cc(Nc2ncc(F)c(Nc3ccc4c(n3)N(COP(=O)(O)O)C(=O)C(C)(C)O4)n2)cc(OC)c1OC [Fostamatinib (R788)] | 1.03 | 1.06 | 0.301 | 0.365 |
| COc1ccc(-c2cc(=O)c3c(O)cc(O[C@@H]4O[C@H](CO[C@@H]5O[C@@H](C)[C@H](O)[C@@H](O)[C@H]5O)[C@@H](O)[C@H](O)[C@H]4O)cc3o2)cc1O [Diosmin] | 0.94 | 1.11 | 1.16 | 1.14 |
| CC1(C)S[C@@H]2[C@H](NC(=O)[C@H](NC(=O)N3CCN(S(C)(=O)=O)C3=O)c3ccccc3)C(=O)N2[C@H]1C(=O)O [Mezlocillin Sodium] | 0.766 | 0.974 | 0.681 | 0.965 |
| Cn1c(=O)cc(N2CCC[C@@H](N)C2)n(Cc2ccccc2C#N)c1=O [Alogliptin] | 0.928 | 0.995 | 0.894 | 1.03 |
| CCCCCCCN(CC)CCCC(O)c1ccc(NS(C)(=O)=O)cc1 (configuration not stated) [Ibutilide Fumarate] | 0.919 | 1 | 0.783 | 0.871 |
| Cc1nnc(C(C)C)n1C1C[C@H]2CC[C@@H](C1)N2CC[C@H](NC(=O)C1CCC(F)(F)CC1)c1ccccc1 (stereo in doubt) [Maraviroc] | 0.973 | 1.15 | 0.873 | 1.03 |
| COc1cnc(NS(=O)(=O)c2ccc(N)cc2)nc1 [Sulfameter] | 0.993 | 1.04 | 0.919 | 1.02 |
| COc1cc(CCC(C)=O)ccc1O [Vanillylacetone] | 0.907 | 1.3 | 0.924 | 1.12 |
| O=NN(CCCl)C(=O)NC1CCCCC1 [Lomustine] | 0.92 | 1.05 | 0.391 | 0.418 |
| CC(C)c1cc(C(=O)N2Cc3ccc(CN4CCN(C)CC4)cc3C2)c(O)cc1O | 0.254 | 0.211 | 0.265 | 0.235 |
| CN1CCC(COc2cnc(-c3cccc(Cn4nc(-c5cccc(C#N)c5)ccc4=O)c3)nc2)CC1 | 0.843 | 1.02 | 0.115 | 0.126 |
| COc1cc(C(=O)NC2CCCNC2)cc(OC)c1OC (configuration not stated) [Troxipide] | 0.905 | 1.08 | 0.871 | 1.01 |
| C[C@]12CC[C@@H]3c4ccc(O)cc4CC[C@H]3[C@@H]1CCC2=O [Estrone] | 0.947 | 1.01 | 0.983 | 0.979 |
| CCCCCCCCc1ccc(CCC(N)(CO)CO)cc1 [Fingolimod (FTY720) HCl] | 0.722 | 1.02 | 0.0372 | 0.0418 |
| COc1ccc2[nH]c([S+]([O-])Cc3ncc(C)c(OC)c3C)nc2c1 (configuration not stated) [Omeprazole] | 1.4 | 1.09 | 0.901 | 1.17 |
| CCS(=O)(=O)Nc1ccc2c(c1)/C(=C(/Nc1ccc(CN3CCCCC3)cc1)c1ccccc1)C(=O)N2 [Hesperadin] | 0.316 | 0.329 | 0.0548 | 0.0381 |
| O=C(Nc1ccc(-c2ccnc(Nc3ccc(N4CCOCC4)cc3)n2)cc1)C1CCCN1 (configuration not stated) | 0.994 | 1.14 | 1.01 | 0.923 |
| COc1nc(-c2ccc3c(c2)OCO3)n(-c2ccc(NC(=O)CSc3ccccc3)cc2)n1 [SecinH3] | 0.777 | 0.923 | 0.797 | 0.767 |
| NC(=S)N/N=C/c1ncccc1N [Triapine] | 0.194 | 0.166 | 0.216 | 0.167 |
| Nc1cccc2c1CN(C1CCC(=O)NC1=O)C2=O (configuration not stated) [Lenalidomide (CC-5013)] | 0.994 | 1.07 | 0.97 | 1 |

| Structure (SMILES) | fractional viability [1] | fractional viability [2] | fractional viability [3] | fractional viability [4] |
| --- | --- | --- | --- | --- |
| O=C(NS(=O)(=O)c1ccc(Br)s1)c1ccc(Cl)cc1Cl [Tasisulam] | 0.84 | 0.973 | 0.503 | 0.726 |
| C/C(=N\NC(=O)c1cccc(S(=O)(=O)N2CCOCC2)c1)c1cc(Cl)ccc1O | 0.348 | 0.356 | 0.242 | 0.136 |
| OCCOCCN1CCN(C(c2ccccc2)c2ccc(Cl)cc2)CC1 (configuration not stated) [Hydroxyzine 2HCl] | 0.999 | 1.15 | 0.708 | 1 |
| COc1ccc(CNC(=O)Nc2ncc([N+](=O)[O-])s2)cc1 | 1.16 | 1.14 | 0.911 | 0.791 |
| Cn1c2ccccc2c2c3c(c4c5ccccc5n(CCC#N)c4c21)CNC3=O | 0.64 | 1.01 | 0.671 | 0.79 |
| Cc1ccccc1N1C(=O)c2cc(S(N)(=O)=O)c(Cl)cc2NC1C (configuration not stated) [Metolazone] | 1.06 | 1.24 | 0.826 | 1.13 |
| Cc1cc(-n2c(=O)[nH]c(=O)n(C)c2=O)ccc1Oc1ccc(SC(F)(F)F)cc1 [Toltrazuril] | 1.02 | 1 | 0.841 | 0.948 |
| [I-].[K+] [Potassium Iodide] | 0.934 | 1.16 | 0.955 | 0.937 |
| C=CC(=O)N1CCC[C@@H](n2nc(-c3ccc(Oc4ccccc4)cc3)c3c(N)ncnc32)C1 | 1 | 1.18 | 0.959 | 1.2 |
| CC(=O)N1CCN(CCOc2ccc(C3CCN(C4=Nn5c(nnc5C(F)(F)F)CC4)CC3)cc2)CC1 | 0.811 | 0.931 | 0.663 | 0.696 |
| O=C(O)c1ccccc1C(=O)Nc1ccc(-c2ccccc2)cc1 [Kartogenin] | 0.795 | 0.86 | 0.781 | 0.743 |
| CC1=C(CC(=O)O)c2cc(F)ccc2/C1=C\c1ccc([S+](C)[O-])cc1 (configuration not stated) [Sulindac] | 1.18 | 0.937 | 0.943 | 0.945 |
| C=CC(=O)Nc1ccc2ncnc(Nc3ccc(OCc4cccc(F)c4)c(Cl)c3)c2c1 | 0.704 | 0.853 | 0.044 | 0.0416 |
| Cc1nc(N)sc1-c1ccnc(Nc2ccc(N3CCOCC3)cc2)n1 | 0.619 | 0.722 | 0.29 | 0.249 |
| C[C@]12CC[C@@H]3c4ccc(O)cc4CC[C@H]3[C@@H]1C[C@@H](O)[C@@H]2O [Estriol] | 0.945 | 1.09 | 0.804 | 0.996 |
| C[C@@H]1CN(CC(=O)Nc2ccc3c(c2)Cc2cccc(-c4cc(=O)cc(N5CCOCC5)o4)c2S3)C[C@H](C)O1 | 0.779 | 0.717 | 0.397 | 0.363 |
| CCC[C@H](NC(=O)[C@@H]1[C@H]2CCC[C@H]2CN1C(=O)[C@@H](NC(=O)[C@@H](NC(=O)c1cnccn1)C1CCCCC1)C(C)(C)C)C(=O)C(=O)NC1CC1 [Telaprevir (VX-950)] | 1.14 | 1.1 | 0.668 | 0.827 |
| Cc1noc(NS(=O)(=O)c2ccc(N)cc2)c1C [Sulfisoxazole] | 1.07 | 1.1 | 0.847 | 1.03 |

Source: the supplement of paper PMC5919970
